# The full ranking holds about 18,000 sequences; the median of “TetR repression strength (sort-seq, GFP reporter)” is about 0.23, and the highest 2% start at about 0.68. Some of the results follow.
# Biological target: TetR (class B, Tn10) (UniProt P04483)
# Test: TetR repression strength (sort-seq, GFP reporter) (relative to tetO2 = 1); higher = stronger repression
# Details: E. coli
# Outline: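 Repression strength is the top bin index plus one minus the read-weighted mean bin, relative to the unaltered operator's value. A low-copy library in E. coli SIG10-MAX randomized eight operator positions between a constitutive promoter and sfGFP, with TetR expressed constitutively; cells grew 5 h at 37 °C in LB with 50 µg/mL chloramphenicol and 10^6 were FACS-sorted into 13 bins that were each Illumina-sequenced. Three independent transformations were averaged, keeping only members with ≥30 reads in all replicates and CV ≤0.5.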
# Sequence of UniProt P04483 (P04483 whole entry): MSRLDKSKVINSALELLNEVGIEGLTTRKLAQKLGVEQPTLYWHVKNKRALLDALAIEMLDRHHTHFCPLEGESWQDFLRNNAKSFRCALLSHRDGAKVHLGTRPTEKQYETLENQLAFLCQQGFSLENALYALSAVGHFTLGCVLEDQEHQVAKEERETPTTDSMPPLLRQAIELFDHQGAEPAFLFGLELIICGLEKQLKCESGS
row,Sequence,TetR repression strength
1,TCCCGTGGAGTCCGAGAGA,0.39
2,TCCCCTTGAGTGAGAGAGA,0.191
3,TCCCGTTGAGTCGAAGAGA,0.233
4,TCCCGACGAGTGGGGGAGA,0.209
5,TCCCCTTCAGTTACTGAGA,0.28
6,TCCCACCCAGTGGTAGAGA,0.357
7,TCCCTGCGAGTGGAGGAGA,1.08
8,TCCCAAGGAGTCGGCGAGA,0.743
9,TCCCGGATAGTTGGTGAGA,0.0558
10,TCCCTGGTAGTTGGCGAGA,0.0874
11,TCCCGATTAGTACGTGAGA,0.552
12,TCCCCTATAGTGATGGAGA,0.189
13,TCCCCTATAGTAAGAGAGA,0.143
14,TCCCCGACAGTGCAGGAGA,0.299
15,TCCCAGTTAGTTCGGGAGA,0.0688
16,TCCCCCTGAGTAGGGGAGA,0.307
17,TCCCGATTAGTGTGTGAGA,0.0284
18,TCCCTGTCAGTGAGTGAGA,0.562
19,TCCCGGACAGTGAGGGAGA,0.185
20,TCCCCTTCAGTCAAGGAGA,0.253
21,TCCCGTGCAGTATGCGAGA,0.202
22,TCCCAGTAAGTCGCCGAGA,0.199
23,TCCCTTAGAGTAGACGAGA,0.376
24,TCCCTTGGAGTGATTGAGA,0.256
25,TCCCGGTGAGTTTGGGAGA,0.277
26,TCCCGCGGAGTGTTTGAGA,0.31

row,Sequence,TetR repression strength
1,TCCCAGTTAGTGAAGGAGA,0.145
2,TCCCTTGAAGTTACCGAGA,0.844
3,TCCCGGGGAGTAAAGGAGA,0.252
4,TCCCCGGAAGTCGTAGAGA,0.284
5,TCCCGGGTAGTATGGGAGA,0.254
6,TCCCACATAGTGCAGGAGA,0.141
7,TCCCCTGCAGTTCTGGAGA,0.0734
8,TCCCGGATAGTGCCTGAGA,0.216
9,TCCCTTAAAGTATCCGAGA,0.19
10,TCCCGGCTAGTGGGTGAGA,0.182
11,TCCCCGGCAGTAGGGGAGA,0.177
12,TCCCACGTAGTTTTCGAGA,0.415
13,TCCCCCGAAGTGCTGGAGA,0.277
14,TCCCCTCAAGTGCTGGAGA,0.207
15,TCCCTGAAAGTGCTGGAGA,0.311
16,TCCCCAATAGTAGGGGAGA,0.245
17,TCCCACTCAGTCGAGGAGA,0.205
18,TCCCAACGAGTGGACGAGA,0.155
19,TCCCTGGCAGTATAGGAGA,0.266
20,TCCCCATCAGTCGGTGAGA,0.144
21,TCCCCCGCAGTCGGCGAGA,0.0843
22,TCCCGCGAAGTGTCGGAGA,0.283
23,TCCCGAACAGTGGACGAGA,0.383
24,TCCCGTCAAGTTCGCGAGA,0.256
25,TCCCGCAGAGTCCTAGAGA,0.295
26,TCCCATACAGTGTGGGAGA,0.337

row,Sequence,TetR repression strength
1,TCCCTTGTAGTAAGTGAGA,0.152
2,TCCCGACGAGTGACAGAGA,0.584
3,TCCCGCGTAGTGCTGGAGA,0.155
4,TCCCCGTAAGTAGCAGAGA,0.244
5,TCCCACGGAGTCCTTGAGA,0.0212
6,TCCCTATTAGTTCCAGAGA,0.193
7,TCCCGTATAGTCGGCGAGA,0.0358
8,TCCCCGGTAGTTGGAGAGA,0.18
9,TCCCCCTGAGTGCGAGAGA,0.149
10,TCCCGGTAAGTGGCTGAGA,1.11
11,TCCCTGCAAGTGCAGGAGA,0.336
12,TCCCCAATAGTCTTAGAGA,0.407
13,TCCCGGGTAGTCCACGAGA,0.335
14,TCCCGGTGAGTGTATGAGA,0.302
15,TCCCCAAAAGTGTGAGAGA,0.128
16,TCCCAGAGAGTGCATGAGA,0.159
17,TCCCGGCGAGTGTCAGAGA,0.495
18,TCCCGGAGAGTCGGTGAGA,0.163
19,TCCCACGCAGTTGTGGAGA,0.155
20,TCCCGTGGAGTAGACGAGA,0.099
21,TCCCCGTCAGTGGTCGAGA,0.184
22,TCCCGCTTAGTTAGGGAGA,1.02
23,TCCCAAGGAGTTAACGAGA,0.424
24,TCCCACGGAGTGGGCGAGA,0.248
25,TCCCGTAGAGTCTAGGAGA,0.267
26,TCCCGCCTAGTATTTGAGA,0.278

row,Sequence,TetR repression strength
1,TCCCGCAGAGTGGGCGAGA,0.274
2,TCCCACCAAGTCGGCGAGA,0.113
3,TCCCCCCAAGTATTGGAGA,0.159
4,TCCCATTTAGTAACTGAGA,0.258
5,TCCCATTGAGTGGGTGAGA,0.104
6,TCCCATTAAGTCTAAGAGA,0.247
7,TCCCGGATAGTATGAGAGA,0.24
8,TCCCTATGAGTGTCAGAGA,0.238
9,TCCCTCTCAGTAATCGAGA,0.415
10,TCCCCCGAAGTGGTTGAGA,0.198
11,TCCCGACGAGTGACCGAGA,0.514
12,TCCCTCGCAGTACGAGAGA,0.265
13,TCCCGCTTAGTAACTGAGA,0.215
14,TCCCAAGCAGTCTGGGAGA,0.173
15,TCCCCTGGAGTTCGTGAGA,0.234
16,TCCCGCTGAGTAAGTGAGA,0.363
17,TCCCTAGGAGTTAGGGAGA,0.979
18,TCCCCGCGAGTGGGGGAGA,0.221
19,TCCCCGGAAGTGTTTGAGA,0.13
20,TCCCTTGTAGTTGATGAGA,0.15
21,TCCCTTAGAGTACACGAGA,0.274
22,TCCCGAGGAGTGAGTGAGA,0.238
23,TCCCCGTCAGTGAGCGAGA,0.0806
24,TCCCAAAGAGTGTAGGAGA,0.241
25,TCCCGATAAGTGGCTGAGA,0.523
26,TCCCCGACAGTACAAGAGA,0.275

row,Sequence,TetR repression strength
1,TCCCCGTTAGTGGTCGAGA,0.0434
2,TCCCTTCGAGTGGTGGAGA,0.263
3,TCCCAGAAAGTGATAGAGA,0.438
4,TCCCGATCAGTAGAAGAGA,0.289
5,TCCCGTTAAGTGATGGAGA,0.305
6,TCCCCGGAAGTGTGGGAGA,0.451
7,TCCCCAATAGTGTTCGAGA,0.397
8,TCCCCTCCAGTTATTGAGA,0.477
9,TCCCAGTCAGTGAGGGAGA,0.154
10,TCCCACACAGTATGTGAGA,0.13
11,TCCCAAACAGTGGCGGAGA,0.277
12,TCCCGCGGAGTCATGGAGA,0.148
13,TCCCATGTAGTGTACGAGA,0.162
14,TCCCGATCAGTGGAAGAGA,0.508
15,TCCCCACGAGTATCTGAGA,0.207
16,TCCCCAAGAGTGCGAGAGA,0.419
17,TCCCGATCAGTCTGGGAGA,0.215
18,TCCCCGTGAGTAGGGGAGA,0.234
19,TCCCCACCAGTCATCGAGA,0.399
20,TCCCGCAAAGTACAAGAGA,0.317
21,TCCCTTGGAGTAAGTGAGA,0.0553
22,TCCCTGGCAGTAAGGGAGA,0.216
23,TCCCAGATAGTGGAGGAGA,0.342
24,TCCCTAAAAGTGTGTGAGA,0.177
25,TCCCCAAGAGTGAGGGAGA,0.228
26,TCCCGTTCAGTTACCGAGA,0.446

row,Sequence,TetR repression strength
1,TCCCATAGAGTTCTGGAGA,0.00727
2,TCCCAGAGAGTTTTTGAGA,0.299
3,TCCCGTGAAGTGGCAGAGA,0.175
4,TCCCTATTAGTGAGAGAGA,0.631
5,TCCCAATGAGTGCCAGAGA,0.668
6,TCCCTGATAGTCTCCGAGA,0.335
7,TCCCGCACAGTAGCTGAGA,0.211
8,TCCCCCCGAGTGTTGGAGA,0.179
9,TCCCTTCTAGTTGTCGAGA,0.636
10,TCCCTGTAAGTAGAGGAGA,0.246
11,TCCCCAGGAGTTGGAGAGA,0
12,TCCCGGCCAGTGCACGAGA,0.235
13,TCCCGGGCAGTGTTAGAGA,0.354
14,TCCCGTCAAGTATCTGAGA,0.514
15,TCCCCCAGAGTGGGCGAGA,0.137
16,TCCCACTCAGTTGTAGAGA,0.614
17,TCCCTAGGAGTCGGGGAGA,0.261
18,TCCCGGTGAGTGTGTGAGA,0.182
19,TCCCTAACAGTGTAAGAGA,0.355
20,TCCCCGATAGTAAGGGAGA,0.372
21,TCCCACGGAGTGCGTGAGA,0.125
22,TCCCAGCAAGTACGGGAGA,0.361
23,TCCCCCTTAGTAGTGGAGA,0.385
24,TCCCCGGTAGTCTCTGAGA,0.514
25,TCCCTTTGAGTAAGGGAGA,0.152
26,TCCCGCTTAGTGGGGGAGA,0.525

row,Sequence,TetR repression strength
1,TCCCGGAGAGTCAGGGAGA,0.288
2,TCCCTACAAGTATTCGAGA,0.207
3,TCCCAATCAGTCGGAGAGA,0.278
4,TCCCGTAAAGTGTTAGAGA,0.696
5,TCCCGACCAGTGTGAGAGA,0.426
6,TCCCCCCAAGTATGAGAGA,0.104
7,TCCCATCAAGTAAACGAGA,0.592
8,TCCCAGCCAGTAAATGAGA,0.509
9,TCCCTCGGAGTCTGTGAGA,0.215
10,TCCCGGCTAGTGATGGAGA,0.31
11,TCCCTGTCAGTGGCCGAGA,0.399
12,TCCCGAGCAGTAGGTGAGA,0.187
13,TCCCGAGGAGTATGGGAGA,0.36
14,TCCCGCGAAGTGAGTGAGA,0.0178
15,TCCCAGAAAGTTCGGGAGA,0.0678
16,TCCCGGGGAGTTTGTGAGA,0.186
17,TCCCCCAAAGTTAAGGAGA,0.195
18,TCCCTTTCAGTAGCGGAGA,0.798
19,TCCCTATCAGTTTTTGAGA,0.472
20,TCCCAATGAGTGGCTGAGA,0.0325
21,TCCCCGCTAGTAGCTGAGA,0.193
22,TCCCAGTGAGTCACAGAGA,0.348
23,TCCCATTCAGTCAATGAGA,0.457
24,TCCCACTTAGTAAGAGAGA,0.195
25,TCCCGATTAGTGTGGGAGA,0.159
26,TCCCGGAGAGTAGGTGAGA,0.0694

row,Sequence,TetR repression strength
1,TCCCTACAAGTTATTGAGA,0.351
2,TCCCCAGGAGTTATCGAGA,0.0573
3,TCCCTGGTAGTTGCAGAGA,0.0399
4,TCCCAGGTAGTCGGAGAGA,0.277
5,TCCCAAGAAGTATGGGAGA,0.109
6,TCCCGACAAGTAGCTGAGA,0.187
7,TCCCCTCCAGTACACGAGA,0.143
8,TCCCAAGTAGTGGTAGAGA,0.24
9,TCCCTTATAGTTTGCGAGA,0.198
10,TCCCGGCTAGTATCAGAGA,0.43
11,TCCCACAAAGTTAGGGAGA,0.318
12,TCCCGACTAGTATTCGAGA,0.207
13,TCCCACCTAGTCTGTGAGA,0.171
14,TCCCGCATAGTGTCAGAGA,0.276
15,TCCCGAGTAGTGCTGGAGA,0.362
16,TCCCAAGCAGTAAGTGAGA,0.166
17,TCCCTAGGAGTCAGAGAGA,0.0852
18,TCCCTTTAAGTCGTGGAGA,0.211
19,TCCCGAACAGTCAGCGAGA,0.145
20,TCCCCAAGAGTCGTGGAGA,0.101
21,TCCCTGAGAGTAGCTGAGA,0.372
22,TCCCATTAAGTAGGGGAGA,0.256

# Source: a collection of fitness landscapes (doi:10.1038/s41467-024-54723-y)
